# Experimental data as given in PubChem BioAssay AID463173 (ICCB-Longwood Screening Facility, Harvard Medical School, 2010).
# The whole screen tested about 52,000 compounds, of which about 4,300 (8.3%) were called active. No stated cut-off is given here; in the data, active means survival mostly below about 52% (no sharp cut-off); inactive means mostly above about 56%. This is one part of the list.
# Test system: DeltatarO mutant
# Assay: S. aureus survival, RN4220 and DeltatarO strains – OD600, teichoic acid synthesis inhibitors, primary screen (AID 463173)
# Settings: S. aureus RN4220 wild type/DeltatarO growth, OD600, 18 h, stronger effect = lower value, screened at 18.75 µg/mL (by protocol)
row,Structure (SMILES),survival
1,Cc1cccc(C)c1NC(=O)CCC(=O)N1Cc2ccccc2Oc2ncccc21,inactive: 69%
2,O=C(NC1CCN(Cc2ccccc2)CC1)c1ccc(Cn2c(=O)c3ccccc3n(Cc3cccc(F)c3)c2=O)cc1,inactive: 88%
3,COC(=O)c1cc2sccc2n1Cc1ccc(F)cc1Cl,inactive: 65%
4,CCOC(=O)c1c(C)oc2ccc(N(C(C)=O)S(=O)(=O)c3c(C)cc(C)cc3C)cc12,inactive: 168%
5,COc1ccc(OC)c(CC2C(=O)Nc3ccc(Br)cc32)c1 (stereo not given),inactive: 72%
6,Cc1cc(N2CCN(c3cc(Cl)ccc3C)CC2)n2nc(-c3ccccc3)nc2n1,inactive: 77%
7,CCC(C)NC(=O)C1CCN(Cc2cc(OC)ccc2OC)CC1 (stereo not given),inactive: 70%
8,Cc1cc(F)ccc1S(=O)(=O)Nc1cc2c(C(=O)O)c(C)oc2c2ccccc12,active: 39%
9,CCCCNC(=O)C1CCC(Cn2c(=O)c3sccc3n(CC(=O)Nc3ccccc3)c2=O)CC1 (stereo not given),inactive: 94%
10,O=C(COc1ccc(F)cc1)Nc1ccc2nc(SCCOc3ccccc3)sc2c1,inactive: 87%
11,COc1cccc(NC(=O)Cn2c(=O)n(Cc3ccc(C(=O)NCc4ccc(C)cc4)cc3)c(=O)c3ccccc32)c1,inactive: 80%
12,COc1ccc(Cl)cc1C(=O)NCCS(=O)(=O)N1CCN(c2ccccc2OC)CC1,inactive: 80%
13,COCCNC(=O)CN1CCC(NC(=O)Nc2ccc(C(F)(F)F)cc2)CC1,inactive: 92%
14,CCOc1ccc(Cn2c(CNS(=O)(=O)c3ccc(C(C)(C)C)cc3)nc3cccnc32)cc1,inactive: 85%
15,CCOC(=O)c1c(C)n(-c2ccccc2)c2ccc(OC(=O)c3c(F)cccc3F)cc12,inactive: 67%
16,COc1ccc(CCNC(=O)C2c3ccccc3C(=O)N2Cc2ccccc2)cc1OC (stereo not given),inactive: 90%
17,CCOc1ccc(CNC(=O)C2=Cc3cccc(OC)c3OC2)cc1,inactive: 87%
18,CCCC(C)C(=O)Nc1nnc(C(F)(F)F)s1 (stereo not given),inactive: 103%
19,O=C(Cc1ccc(NC(=O)N2CCSc3ncccc32)cc1)NCc1cccc(Cl)c1,inactive: 65%
20,CC(=O)NC1(c2ccccc2F)CCN(CC(=O)N2CCN(C(=O)c3ccco3)CC2)CC1,inactive: 103%
21,Cc1cccc(C(=O)NCc2nc3ccccc3n2Cc2ccccc2Cl)c1,inactive: 106%
22,CCOc1ccccc1CNC(=O)c1oc2c(c1C)-c1nn(Cc3cccc(Cl)c3)cc1CC2,inactive: 70%
23,Cc1ccc2c(=O)c(C(=O)c3ccc(Cl)cc3)cn(CC(=O)Nc3ccc4c(c3)OCCO4)c2n1,inactive: 67%

row,Structure (SMILES),survival
1,O=C(Nc1cccc(OCc2cc(=O)n3ccccc3n2)c1)Nc1cccc(C(F)(F)F)c1,active: -4%
2,Cc1ccc(NC(=O)C2CCCN2S(=O)(=O)c2cccc3cccnc23)c(C)c1 (stereo not given),inactive: 70%
3,COc1ccc(CNC(=O)C2CCN(C(=O)N3CCOc4ccc(Cl)cc43)CC2)cc1,inactive: 92%
4,Cc1cc(Nc2ccccc2O)nc(C)n1,inactive: 67%
5,COc1ccc(NC(=O)CCCN2C(=O)CCn3nc(-c4cn(C)c5ccccc45)cc32)cc1,inactive: 77%
6,Cc1ccc(C)c(S(=O)(=O)n2nc(C)c(S(=O)(=O)N3CCCCCC3)c2C)c1,inactive: 88%
7,Cc1ccccc1OCC(=O)Nc1ccc2nc(SCC(=O)N3CCOCC3)sc2c1,inactive: 77%
8,O=C(CN1C(=O)C2(SCC(=O)N2c2ccc(F)c(F)c2)c2ccccc21)Nc1cccc(Cl)c1 (stereo not given),inactive: 83%
9,O=C(CCC1CCCCC1)Nc1nccs1,inactive: 78%
10,CCOc1ccc(NC(=O)CCNS(=O)(=O)c2cccs2)cc1,inactive: 51%
11,Cc1ccc(-c2nn(CCC(N)=O)c(=O)c3ccccc23)cc1,inactive: 68%
12,COc1c(C)cc(NS(=O)(=O)c2ccc3c(c2)OCCO3)cc1C,inactive: 72%
13,Cc1cccc(NC(=O)C2CCN(S(=O)(=O)c3c(C)noc3/C=C/c3ccco3)CC2)c1,inactive: 65%
14,CCN(Cc1ccccc1)S(=O)(=O)c1ccc(F)c(C(=O)Nc2cc(C)ccc2OC)c1,inactive: 98%
15,C=CCn1c(N)c(-c2nc3ccccc3[nH]2)sc1=S,inactive: 43%
16,O=C(NC1CC1)C1C2C=CC3(O2)C1C(=O)N(Cc1ccccc1)C3C(=O)NC1CCCC1 (stereo not given),inactive: 66%
17,Cc1cccc(C)c1-n1ncc(C(=O)NCCN2CCN(C)CC2)c1C1CCN(C(=O)OC(C)(C)C)CC1,active: 8%
18,CCOC(=O)c1cnc2ccc(OC)cc2c1Nc1cccc(C(C)=O)c1,active: 9%
19,Cc1ccc(Cl)cc1NC(=O)N1CCC(CN2CCc3ccccc3C2)CC1,inactive: 86%
20,CSC1=C(C#N)C(c2ccc(Cl)cc2)CC(=O)N1 (stereo not given),inactive: 75%
21,CCC(Sc1nc2ncccc2[nH]1)C(=O)Nc1ccccc1F (stereo not given),inactive: 112%
22,COc1ccc2c(CNCc3cccs3)c(C(=O)O)n(Cc3ccccc3C)c2c1,inactive: 99%
23,O=C(O)CNC(=O)OCc1ccccc1,inactive: 97%

row,Structure (SMILES),survival
1,O=C(CSc1nc2c([nH]c3ccccc32)c(=O)n1-c1ccc(F)cc1)Nc1ccc2c(c1)OCCO2,inactive: 70%
2,CC1(C)CC(=O)C=C(NCC2CCNCC2)C1,inactive: 95%
3,CCS(=O)(=O)N1CCc2cc(C(=O)NCc3ccc(C)cc3)ccc21,inactive: 82%
4,CCOC(=O)c1nnn(-c2nonc2N)c1-c1ccccc1,inactive: 73%
5,CCC(Cn1nnc2ccccc2c1=O)NC(=O)Nc1ccccc1Cl (stereo not given),inactive: 85%
6,CCCCOc1ccc(C(=O)Nc2ccc3c(c2)N(C(C)=O)CCC3)cc1,inactive: 85%
7,Cn1cccc1-c1cc2n(n1)CCC(=O)N2CC(=O)Nc1ccc(F)cc1Cl,inactive: 88%
8,CCOc1cc(CNc2ccc(O)cc2)cc(Cl)c1OCc1ccccc1,active: 1%
9,COC(=O)c1ccc2c(=O)n(CCCCCC(=O)N3CCN(c4cccc(C)c4C)CC3)c(=O)[nH]c2c1,inactive: 90%
10,CN1CCN(C(=O)/C(=C/c2cccs2)NC(=O)c2cccs2)CC1,inactive: 74%
11,Cc1c(NC(=O)Cc2ccccc2)cccc1-c1nc2cccnc2s1,inactive: 89%
12,CCOc1ccc(NC(=O)c2cc3nc(-c4ccc(OC)cc4)cc(C(F)(F)F)n3n2)cc1,inactive: 134%
13,Cn1nc(-c2ccccc2F)c2cc(C(=O)N3CCN(c4ccccc4F)CC3)sc21,inactive: 40%
14,COCCCNc1nc2c(-c3cccc(Br)c3)nnn2c2ccccc12,inactive: 54%
15,Cc1c(C(=O)O)oc2c1-c1nn(Cc3ccccc3Cl)cc1CC2,inactive: 80%
16,COc1cc([C@@H]2Nc3c(F)cccc3[C@@H]3C=CC[C@@H]32)cc(Br)c1OC,inactive: 55%
17,COc1ccc2c(Sc3ccc(C)cc3)c(C(=O)NC(C)c3ccccc3)[nH]c2c1 (stereo not given),inactive: 89%
18,CCc1ccccc1NC(=O)c1ccc(F)c(S(=O)(=O)N2CCN(c3ccccc3OC)CC2)c1,inactive: 89%
19,COCCNC(=O)CN1C(=O)CCn2nc(-c3cn(C)c4ccccc34)cc21,inactive: 72%
20,CCOC(=O)N1CCN(CCC(=O)Nc2cccc(F)c2)CC1,inactive: 74%
21,Cc1c(C(=O)NCc2ccc(Cl)cc2)sc2nc3n(c(=O)c12)CCC3,inactive: 102%
22,Cc1ccc(NC(=O)CC(c2ccc(F)cc2)N2Cc3ccccc3C2=O)cc1C (stereo not given),inactive: 74%
23,Cc1cccc(N2C(=O)C(CC(=O)Nc3cccc(F)c3)N(CCc3ccncc3)C2=O)c1 (stereo not given),inactive: 75%

row,Structure (SMILES),survival
1,O=S(=O)(c1ccc(Cl)cc1)c1nc(-c2ccccc2F)oc1NCc1ccccc1,inactive: 67%
2,COc1ccc(NC(=O)C2=CC(c3ccc4c(c3)OCO4)=NS(=O)(=O)N2C)cc1OC,inactive: 79%
3,Cc1ccc(C(=O)N(CC#N)CC#N)cc1,inactive: 94%
4,Cc1ccc(Sc2ccc(N3CCC(C(=O)Nc4ccc(Cl)cc4)CC3)nn2)cc1,inactive: 72%
5,Fc1ccccc1CSC1=NCCN1,inactive: 98%
6,CCc1ccc(C(=O)c2cn(CC(=O)NCc3ccc(C)cc3)c3nc(C)ccc3c2=O)cc1,inactive: 98%
7,CCOC(=O)CCNC(=O)N1CCN(S(=O)(=O)c2ccc3c(ccn3C)c2)CC1,inactive: 89%
8,CCc1nn(CC(=O)NCCCc2ccccc2)c(=O)c2cc3cc(F)ccc3n12,inactive: 71%
9,Cc1ccc(CNC(=O)c2ccc3c(c2)NC(=O)C(CS(=O)(=O)Cc2cccc(F)c2)N3)cc1 (stereo not given),inactive: 86%
10,CC(=O)c1ccc(NC(=O)c2cc3c(=O)oc4ccc(C)cc4c3s2)cc1,inactive: 106%
11,Cc1ccc(N2CCN(C(=O)C3CCN(S(=O)(=O)c4ccc5c(c4)oc(=O)n5C)CC3)CC2C)cc1 (stereo not given),inactive: 109%
12,O=c1c2sc3ccccc3c2n(Cc2cccc(Cl)c2)c(=O)n1Cc1ccco1,inactive: 101%
13,CC(=O)c1ccc(NC(=O)CCc2c(C)nn(-c3ccc(N4CCOCC4)nn3)c2C)cc1,inactive: 67%
14,Cc1cc(C)c(S(=O)(=O)NCCc2cc3ccc(C)c(C)c3[nH]c2=O)c(C)c1,inactive: 82%
15,COc1ccc(-c2noc(-c3ccc(NCc4cccnc4)c([N+](=O)[O-])c3)n2)cc1OC,inactive: 105%
16,Cc1ccccc1OCCn1c(=N)n(C(C)C)c2ccccc21,inactive: 68%
17,Cc1cc(NC(=O)c2cc(-c3cccc(Cl)c3)on2)n(-c2ccccc2)n1,inactive: 91%
18,CCOc1ccc(C2=CC(c3cccc(Br)c3)n3c(nc4ccccc43)N2)cc1Cl (stereo not given),inactive: 109%
19,Cc1cc(C)cc(-n2c(C)nc3cc(C(=O)O)ccc32)c1,inactive: 62%
20,CCOc1ccccc1NC(=O)c1cnccn1,inactive: 78%
21,CC(C)CC(=O)Nc1nnc(S(=O)(=O)N(CC(C)C)c2ccccc2)s1,inactive: 111%
